Structures can show the parent of a compound that is named as a salt. ± gives the standard deviation of the averaged measurements. In all, about 2,000 compounds were measured (“relative cell viability vs DMSO, compound + 0.2 uM CuET”: median about 1, lowest 2% from about 0.25 on). Some of the results follow.

From the supplement of paper PMC10670038 come the findings set out here.

In this test the test system is TE10. The experiment in a line: relative cell viability vs DMSO, compound + 0.2 uM CuET (fraction); TE10 is an esophageal squamous carcinoma line; higher = less cytotoxic. The following applies: 2 µM; co-treatment: CuET (bis(diethyldithiocarbamate)copper) 0.2 uM; 48 h. On the procedure:
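TE10 ESCC cells (1,000/well, 384-well plates) were treated with Selleck bioactive library compounds at 2 uM combined with 0.2 uM CuET (copper diethyldithiocarbamate) for 48 h. Viability was read by CellTiter-Glo and expressed relative to DMSO wells. Two technical replicates (A, B).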
With `Cc1c(-c2ccc(O)cc2)n(Cc2ccc(OCCN3CCCCCC3)cc2)c2ccc(O)cc12` [Bazedoxifene HCl], the relative cell viability was 0.794 ± 0.06.

For `CC(C=CC1(O)C(C)=CC(=O)CC1(C)C)=CC(=O)O` (stereo not given) [Abscisic Acid (Dormin)], the relative cell viability was determined as 1.26 ± 0.18.

With `NC[C@H](O)c1ccc(O)c(O)c1` [Noradrenaline bitartrate monohydrate], the relative cell viability is 1.07 ± 0.023.

On to `CCN(CC)CCNC(=O)c1ccc(N)cc1` [Procainamide HCl], for which the relative cell viability worked out at 0.957 ± 0.026.

For `N#C/C(=C1/SC[C@@H](c2ccc(Cl)cc2Cl)S1)n1ccnc1` [Luliconazole], the relative cell viability came out at 1.01 ± 0.069.

Regarding `O=[N+]([O-])c1ccc(Nc2nc(N3CCOCC3)nc(N3CCOCC3)n2)cc1`, the relative cell viability was 1.07 ± 0.079.

For `O=C1O[C@H]([C@@H](O)CO)C([O-])=C1O.[Na+]` [Sodium ascorbate], the relative cell viability amounted to 1.24 ± 0.038.

Regarding `CCCCOc1cc(C(=O)OCCN(CC)CC)ccc1N` [Oxybuprocaine HCl], the relative cell viability stood at 1.08 ± 0.13.

As for `CCOC(=O)C1=C(N)Oc2ccc(Br)cc2C1C(C#N)C(=O)OCC` (stereo not given), the relative cell viability was 0.67 ± 0.1.

Take `NC1(Cc2ccc(Cl)cc2)CCN(c2ncnc3[nH]ccc23)CC1`: the relative cell viability worked out at 0.996 ± 0.041.

With `Cc1cc(C(C)Nc2ccccc2)c2nc(N3CCOCC3)cc(=O)n2c1` (stereo not given), the relative cell viability amounted to 1.147 ± 0.0084.

On to `Clc1ccc2nsnc2c1NC1=NCCN1` [Tizanidine HCl], for which the relative cell viability was found to be 1.25 ± 0.14.

For the compound `Cc1cc(Nc2cc(N3CCN(C)CC3)nc(Sc3ccc(NC(=O)C4CC4)cc3)n2)n[nH]1` [VX-680 (Tozasertib, MK-0457)], the relative cell viability is 1.19 ± 0.03.

For the compound `CC(C)Oc1ccc2c(=O)c(-c3ccccc3)coc2c1` [Ipriflavone (Osteofix)], the relative cell viability stood at 0.968 ± 0.056.

On to `Nc1nc(OCc2cc(Br)cs2)c2[nH]cnc2n1` [Lomeguatrib], for which the relative cell viability stood at 1.029 ± 0.0083.

Take `CCCCOc1ccc(C(=O)Nc2ccc(F)cc2F)cc1`: the relative cell viability is 0.957 ± 0.16.

Regarding `C=C[C@](C)(O)CC[C@@H]1[C@@]2(C)CCCC(C)(C)[C@@H]2CC[C@@]1(C)O` [Sclareol], the relative cell viability stood at 0.939 ± 0.14.

Turning to `CNC(=O)[C@@H](NC(=O)[C@H](CC(C)C)[C@H](O)C(=O)NO)C(C)(C)C` [Marimastat(BB-2516)], the relative cell viability turned out to be 0.936 ± 0.11.

Take `C[C@]12CC[C@@H]3c4ccc(O)cc4C[C@@H](CCCCCCCCC[S+]([O-])CCCC(F)(F)C(F)(F)F)[C@H]3[C@@H]1CC[C@@H]2O` (stereo not given in full) [Fulvestrant]: the relative cell viability came out at 1.03 ± 0.015.

In the case of `Clc1ccc(C2(c3ccc(-c4cn[nH]c4)cc3)CCNCC2)cc1`, the relative cell viability is 1.02 ± 0.029.

With `CCS(=O)(=O)c1cccc(-c2cc(C(=O)NC3CCN(C)CC3)c(C)c3[nH]c4ncc(C)cc4c23)c1`, the relative cell viability amounted to 0.886 ± 0.14.

Regarding `COC(=O)[C@H](Cc1ccccc1)NC(=O)[C@@H](N)CC(=O)O` [Aspartame], the relative cell viability was 1.09 ± 0.034.

Consider `NC(=O)C1CCCc2c1[nH]c1ccc(Cl)cc21` (stereo not given) [EX 527 (Selisistat)], for which the relative cell viability is 1.15 ± 0.033.

Take `CCCCc1oc2ccc(NS(C)(=O)=O)cc2c1C(=O)c1ccc(OCCCN(CCCC)CCCC)cc1` [Dronedarone HCl]: the relative cell viability stood at 0.497 ± 0.083.

`CCC1(c2ccccc2)C(=O)NCNC1=O` [Primidone]: the relative cell viability came out at 0.884 ± 0.059.

Turning to `COc1cc(Nc2c(C#N)cnc3cc(OCCCN4CCN(C)CC4)c(OC)cc23)c(Cl)cc1Cl` [Bosutinib (SKI-606)], the relative cell viability is 0.785 ± 0.17.

Consider `CN(C)CCC(c1ccc(Br)cc1)c1ccccn1` (stereo not given) [Brompheniramine hydrogen maleate], for which the relative cell viability stood at 1.21 ± 0.013.

With `COc1ccc(Cl)cc1NC(=O)Nc1cc(C)nc2ccccc12`, the relative cell viability was 1.06 ± 0.04.

Turning to `c1ccc(-c2ccc(C(c3ccccc3)n3ccnc3)cc2)cc1` (stereo not given) [Bifonazole], the relative cell viability was found to be 0.885 ± 0.046.

For `Oc1c(Cl)cc(Cl)c2cccnc12` [Chloroxine], the relative cell viability was 0.502 ± 0.07.

For `O=C1CC[C@@H](C(=O)N2CSC[C@H]2C(=O)O)N1` [Pidotimod], the relative cell viability was found to be 1.05 ± 0.17.

As for `O=C(Nc1cccnc1)c1cc(-c2ccnc(F)c2)ccc1OCc1ccccc1`, the relative cell viability turned out to be 0.887 ± 0.14.

As to `CCOc1nc2cccc(C(=O)O)c2n1Cc1ccc(-c2ccccc2-c2nnn[nH]2)cc1` [Candesartan], the relative cell viability was 1.06 ± 0.031.

With `C=CC(=O)Nc1cccc(Oc2nc(Nc3ccc(N4CCN(C)CC4)cc3)ncc2Cl)c1`, the relative cell viability was 0.827 ± 0.063.

For `C[C@@](Cc1ccc(O)c(O)c1)(NN)C(=O)O` [Carbidopa], the relative cell viability came to 0.896 ± 0.024.

Take `CC1CCN(CC[C@H]2CCCN2S(=O)(=O)c2cccc(O)c2)CC1`: the relative cell viability is 1.14 ± 0.031.

Turning to `Nc1ncnc2c1ncn2[C@@H]1O[C@H](CO)[C@@H](O)[C@@H]1O` [Vidarabine], the relative cell viability amounted to 1.13 ± 0.058.

Turning to `COc1cccc(C=NCCN=Cc2cccc(OC)c2[O-])c1[O-].[Cl-].[Mn+3]`, the relative cell viability worked out at 1.27 ± 0.1.

`COC(=O)Nc1nc2cc(Sc3ccccc3)ccc2[nH]1` [Fenbendazole]: the relative cell viability was 0.746 ± 0.1.

Consider `CC(C)(C)c1cc(C(C)(C)C)c(NC(=O)c2c[nH]c3ccccc3c2=O)cc1O` [Ivacaftor (VX-770)], for which the relative cell viability amounted to 0.531 ± 0.17.

In the case of `Cc1ccc([C@@H]2O[C@H](CO)[C@@H](O)[C@H](O)[C@H]2O)cc1Cc1ccc(-c2ccc(F)cc2)s1` [Canagliflozin], the relative cell viability stood at 1.31 ± 0.21.

Turning to `CC(C)NC[C@@H](C(=O)N1CCN(c2ncnc3c2[C@H](C)C[C@H]3O)CC1)c1ccc(Cl)cc1`, the relative cell viability was 0.585 ± 0.34.

With `Cn1c(=O)c2c(ncn2CC2OCCO2)n(C)c1=O` [Doxofylline], the relative cell viability was determined as 1.17 ± 0.037.

Take `COc1ccc(Oc2cc(C)c(-c3csc(NC(=O)c4ccncc4)n3)c(C)c2)cc1`: the relative cell viability is 0.89 ± 0.15.

As to `CCCCNc1ncc(C(=O)NCc2ccc(-n3ccnc3)cc2)c(NC2CCC(O)CC2)n1` (stereo not given), the relative cell viability turned out to be 0.785 ± 0.27.

Turning to `C=CC(=O)Nc1cccc(Sc2nc(Nc3ccc(N4CCN(C)CC4)cc3)ncc2Cl)c1`, the relative cell viability was 0.846 ± 0.02.

Regarding `CCOC(=O)[C@H]1O[C@@H]1C(=O)N[C@@H](CC(C)C)C(=O)NCCC(C)C` [Aloxistatin], the relative cell viability amounted to 1.18 ± 0.18.

With `Nc1nc2c(ncn2COC(CO)CO)c(=O)[nH]1` [Ganciclovir], the relative cell viability turned out to be 1.1 ± 0.17.

As to `Cc1csc(-c2nnc(Nc3ccc(Oc4ncccc4-c4ccnc(N)n4)cc3)c3ccccc23)c1`, the relative cell viability came to 1.13 ± 0.22.

Take `CC(C)Oc1ccc(-c2cnc3c(-c4ccnc5ccccc45)cnn3c2)cc1`: the relative cell viability was 1.15 ± 0.088.

On to `CNCCc1ccccn1` [Betahistine 2HCl], for which the relative cell viability worked out at 1.03 ± 0.081.

On to `c1ccc2c(CCNc3ccc(Nc4ccncc4)cc3)c[nH]c2c1`, for which the relative cell viability amounted to 0.999 ± 0.084.

For the compound `CC(C)CCNC(=O)[C@H](CC(C)C)NC(=O)[C@H]1O[C@@H]1C(=O)O` [Loxistatin Acid (E-64C)], the relative cell viability was 1.15 ± 0.11.

With `NCCCCCC(=O)O` [(6-)ε-Aminocaproic acid], the relative cell viability amounted to 1.03 ± 0.033.

With `COc1c(C)cnc(Cn2cnc3c(Cl)nc(N)nc32)c1C`, the relative cell viability turned out to be 0.762 ± 0.11.
